According to article PMC2686265, “ATP and MO25α Regulate the Conformational State of the STRADα Pseudokinase and Activation of the LKB1 Tumour Suppressor” (PLoS Biology, 2009):
Where a chain is given by its changes, count along the chain named. These are yes or no findings as the source states them, for the method shown. For some assays here: Binding seen in cells or lysates may run through a third protein. Some entries that bind do so weakly or less than the wild type. For some assays here: Tags and fused reporters may be left off the sequences shown.

T1: GST-LKB1 (wild type) (human) (UniProt Q15831)
T1 sequence: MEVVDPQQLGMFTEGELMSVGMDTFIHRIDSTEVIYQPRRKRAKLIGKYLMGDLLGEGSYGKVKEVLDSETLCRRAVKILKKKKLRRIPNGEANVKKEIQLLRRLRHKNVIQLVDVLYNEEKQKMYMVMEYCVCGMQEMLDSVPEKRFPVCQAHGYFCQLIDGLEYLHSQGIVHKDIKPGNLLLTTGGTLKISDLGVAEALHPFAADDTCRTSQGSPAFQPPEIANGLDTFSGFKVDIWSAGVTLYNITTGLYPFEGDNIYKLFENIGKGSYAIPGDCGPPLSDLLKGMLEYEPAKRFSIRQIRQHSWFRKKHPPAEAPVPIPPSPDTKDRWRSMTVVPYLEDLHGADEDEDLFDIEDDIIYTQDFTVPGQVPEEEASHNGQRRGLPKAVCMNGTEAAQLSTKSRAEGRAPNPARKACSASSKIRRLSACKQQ

T2: LKB1/STRADα complex (GST-LKB1 with Flag-STRADα) (human) (UniProt Q15831+Q7RTN6)
T2 sequence 1: T1 sequence
T2 sequence 2: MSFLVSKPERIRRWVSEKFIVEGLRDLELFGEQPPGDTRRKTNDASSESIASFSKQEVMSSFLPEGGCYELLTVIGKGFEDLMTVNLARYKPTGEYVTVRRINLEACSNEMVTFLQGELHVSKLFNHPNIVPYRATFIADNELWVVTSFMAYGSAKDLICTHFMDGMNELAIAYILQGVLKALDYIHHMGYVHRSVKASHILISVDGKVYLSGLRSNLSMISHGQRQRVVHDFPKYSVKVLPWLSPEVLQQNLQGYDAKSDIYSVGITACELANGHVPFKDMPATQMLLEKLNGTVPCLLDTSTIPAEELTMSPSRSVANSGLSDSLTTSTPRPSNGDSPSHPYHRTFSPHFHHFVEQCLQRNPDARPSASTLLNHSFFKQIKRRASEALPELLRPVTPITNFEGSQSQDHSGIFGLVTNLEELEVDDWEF

T3: GST-STRADα (wild type) (human) (UniProt Q7RTN6)
T3 sequence: T2 sequence 2

T4: MO25α (R227A/M260A) (residues 1–341) (human) (UniProt Q9Y376)
T4 sequence: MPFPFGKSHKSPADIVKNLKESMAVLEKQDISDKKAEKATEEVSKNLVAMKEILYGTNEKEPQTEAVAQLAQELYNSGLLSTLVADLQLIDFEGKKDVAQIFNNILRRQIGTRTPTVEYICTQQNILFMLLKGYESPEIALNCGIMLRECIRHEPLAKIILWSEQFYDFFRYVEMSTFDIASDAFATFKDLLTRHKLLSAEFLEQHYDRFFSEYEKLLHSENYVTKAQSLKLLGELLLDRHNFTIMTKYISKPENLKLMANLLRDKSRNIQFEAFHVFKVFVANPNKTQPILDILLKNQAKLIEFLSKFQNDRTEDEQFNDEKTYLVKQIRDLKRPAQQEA

T5: MO25α (R227A) (residues 1–341) (human, UniProt Q9Y376 1-341, R227A)
T5 sequence: T4 sequence with A260M

T6: MO25α (WT) (residues 1–341) (human, UniProt Q9Y376 1-341)
T6 chain: T4 sequence with A227R, A260M

B1: Myc-MO25α (wild type) (protein, UniProt Q9Y376 1-341)
chain: T4 sequence with A227R, A260M
B2: untagged MO25α (wild type), expressed in 293 cells (protein, UniProt Q9Y376 1-341)
chain: T4 sequence with A227R, A260M
B3: untagged MO25α(ΔPFPF), expressed in 293 cells (protein, UniProt Q9Y376)
chain: MGKSHKSPADIVKNLKESMAVLEKQDISDKKAEKATEEVSKNLVAMKEILYGTNEKEPQTEAVAQLAQELYNSGLLSTLVADLQLIDFEGKKDVAQIFNNILRRQIGTRTPTVEYICTQQNILFMLLKGYESPEIALNCGIMLRECIRHEPLAKIILWSEQFYDFFRYVEMSTFDIASDAFATFKDLLTRHKLLSAEFLEQHYDRFFSEYEKLLHSENYVTKRQSLKLLGELLLDRHNFTIMTKYISKPENLKLMMNLLRDKSRNIQFEAFHVFKVFVANPNKTQPILDILLKNQAKLIEFLSKFQNDRTEDEQFNDEKTYLVKQIRDLKRPAQQEA
B4: Flag-STRADα (wild type, full-length) (protein, UniProt Q7RTN6 1-431)
chain: T2 sequence 2
B5: untagged STRADα (residues 59–431) (domain or fragment)
chain: MSSFLPEGGCYELLTVIGKGFEDLMTVNLARYKPTGEYVTVRRINLEACSNEMVTFLQGELHVSKLFNHPNIVPYRATFIADNELWVVTSFMAYGSAKDLICTHFMDGMNELAIAYILQGVLKALDYIHHMGYVHRSVKASHILISVDGKVYLSGLRSNLSMISHGQRQRVVHDFPKYSVKVLPWLSPEVLQQNLQGYDAKSDIYSVGITACELANGHVPFKDMPATQMLLEKLNGTVPCLLDTSTIPAEELTMSPSRSVANSGLSDSLTTSTPRPSNGDSPSHPYHRTFSPHFHHFVEQCLQRNPDARPSASTLLNHSFFKQIKRRASEALPELLRPVTPITNFEGSQSQDHSGIFGLVTNLEELEVDDWEF
B6: PMSE-STRADα (residues 1–251), Flag-tagged (domain or fragment, UniProt Q7RTN6 1-251)
chain: MSFLVSKPERIRRWVSEKFIVEGLRDLELFGEQPPGDTRRKTNDASSESIASFSKQEVMSSFLPEGGCYELLTVIGKGFEDLMTVNLARYKPTGEYVTVRRINLEACSNEMVTFLQGELHVSKLFNHPNIVPYRATFIADNELWVVTSFMAYGSAKDLICTHFMDGMNELAIAYILQGVLKALDYIHHMGYVHRSVKASHILISVDGKVYLSGLRSNLSMISHGQRQRVVHDFPKYSVKVLPWLSPEVLQQ
B7: MO25α (WT) (residues 1–341) (natural protein, human, UniProt Q9Y376 1-341, looked up)
chain: T4 sequence with A227R, A260M
notes: MO25α, human, residues 1–341 (full length); also called MO25α (WT, wild type); wild-type MO25α; source: E. coli, expressed individually as GST fusion, purified on glutathione-Sepharose, eluted with PreScission protease

Key:
[1] = target: T1, GST-LKB1 (wild type) (human); assay: pull-down; GST-LKB1, Flag-STRADα and MO25α (Myc-tagged or untagged) co-transfected in 293 cells, GST-LKB1 purified on glutathione-Sepharose, immunoblot
[2] = target: T2, LKB1/STRADα complex (GST-LKB1 with Flag-STRADα) (human); assay: as above
[3] = target: T3, GST-STRADα (wild type) (human); assay: pull-down; GST-STRADα and MO25α (Myc-tagged or untagged) co-expressed in 293 cells, lysed 36 h post-transfection, GST-STRADα purified on glutathione-Sepharose, immunoblot
[4] = target: T1, GST-LKB1 (wild type) (human); assay: pull-down; GST-LKB1 and Flag-STRADα expressed in 293 cells in the absence of MO25α, GST-LKB1 purified on glutathione-Sepharose, immunoblot
[5] = target: T4, MO25α (R227A/M260A) (residues 1–341) (human); assay: SPR; as a2 but with 100 µM ATP in the running buffer; two-site model where appropriate; both purified
[6] = target: T5, MO25α (R227A) (residues 1–341); assay: SPR; BIAcore T100, MO25α amine-coupled to CM5 chip, STRADα injected (5 µM to 0.3 nM), 25°C, 50 mM Tris pH 7.8, 50 mM NaCl, 270 mM sucrose, 1 mM DTT, 0.005% P20, 0.1 mg/ml BSA; without ATP; Kd = kd/ka; both purified
[7] = target: T4, MO25α (R227A/M260A) (residues 1–341) (human); assay: as above
[8] = target: T6, MO25α (WT) (residues 1–341); assay: SEC; gel filtration of separately expressed MO25α beside the His-STRADα/MO25α complex, with molecular mass standards; both purified

Binder	binding [1]	binding [2]	binding [3]	other results
B1	binds	binds	binds	
B2		binds	binds	
B3		binds	binds	
B4	binds			binding [4]: binds
B5				binding [5]: no binding (tested: STRADα up to 5 µM); binding [6]: no binding (condition: without ATP; STRADα up to 5 µM); binding [7]: no binding (tested: STRADα up to 5 µM)
B6	no binding			
B7				binding [8]: no binding
